Read counts are not given, so values of variants with three or more changes are uncertain.

The values that follow come from the RNAGym collection of RNA variant scans (doi:10.7554/elife.90254).

To fix the notation:
B1: LINE1-mini (parent)
chain: GGCAGAGCUCAACACAGCGUGGCAAAGUGGCUGUGGCUAGACUGCC

The variants in the data set derive from B1. Description: self-cleavage, relative activity (ratio to wild type); higher = more cleavage; in vitro, sequencing; the parent is a self-cleaving ribozyme.
Turning to GUCAGAGCGCAACACAGCGUGGCAAAGUGGCUGUGGCUAGACCGCC, the self-cleavage stood at 0.01.
Then GUCAGAGCGCAACACCGCGUGGCAAAGUGGCUGUGGCUAGACUGCC, with 0.14.
GUCAGAGCUCAACACAGCGUGGCAAAGCUACUGUGGCUAGACUGCA: the self-cleavage was 0.03.
Next, GUCAGAGCUCAACACAGCGCGGCAAAGUGGCUGUGGUUAGACUGCC: 0.02.
Next, GUCAGAGCUCAACACAGCGUGGCAAAGUGGCAGUGGCUAGACUGCA: 0.03; GUCAGAGCUCAACACAGCGUGGCAAAGCGGCCGUGGCGAGACUGCC: 0.01; GUCAGAGCUCAACACAGCGUGGCAAAGUGGCUGGGGGUAGACUGCC: 0.
For GUCAGAGCUCAACACAGCGAGGCAAAGUGGCUGUGAUUAGACUGCC, the self-cleavage turned out to be 0.02.
Then GUCAGAGCGCAGCACAGCGUGGCAAAUUGGCUGUGGCUAGACUGCC, with 0.01; and GUCAGAGCACAACCCAGCGUGGCAAAGUGGCAGUGGCUAGAAUCCC, with 0.03.
Then GUCAGAGCCCAACACAGUGUGGCAAAGUGGCGGUGGCUAGACUGCA, with 0.03.
Next, GUCAGAGCUCAACACAGCGCGGCAAAGUGGCUGGGGCUAGACUGUC: 0; GUCAGAGCACAACACAGCGUGGCAAAGUGGCUGAGGCUAGACUGCC: 0.13.
As to GUCAGAGCCCAACACAGCGUGGCAAGGUCGCUGUGGCUAGACUGCC, the self-cleavage was found to be 0.02.
Next, GUCAGAGCCUAACACAGCGUGGCAAAGUGGCUGCGGCUAGUCUGCC: 0.03; GUCAGAGCUCAACACAGCGUGGCAAAGUGGCGGUGGCUAGACGCCU: 0.01.
Then GUCAGAGCUCAACACAGCGUGGCAAAGUGGCUGAGCCUAGACUGCC, with 0.01; and GUCAGAGCCGAACACAGCGUGGCAAAGUGGCUGUGGCGAGACUGCC, with 0.01; and GUCAGAGCUCAACACAGCGUGGCAAAGUGGCAGUUGCUAGACUGCC, with 0.04.
Next, GUCAGAGCGCUACAGAGCGUGUCAAAGUGGCUGUGGCUAGACUGCC: 0.01; GUCAGAGCUCAACACAGCGUGGCAAAGUGGCAGUAGAUAGACUGCC: 0.06; GUCAGAGCGCAACACGGCGUGGCAAAGUGACUGUGGCUAGACUGCC: 0.01.
For the variant GUCAGAGCACAACACAGCAUGGCAAAGUGGCUGUGGCUAGACUGCC, the self-cleavage was 0.17.
For GUCAGAGCUCAACACAGCGCGGUAUAGUGGCUGUGGUUAGACUGCC, the self-cleavage amounted to 0.01.
Take GUCAGAGCGCAAAAGAGCUUGGCAAAUUGGCUAUGGCUAGACUGCC: the self-cleavage amounted to 0.01.
Next, GUCAGAGCGCACCACAGCGUGACAAACUGGCUGUGGAUAGACUGCC: 0.
Then GUCAGAGCGCAAUACAGCGUGGCAAAGUGGCUUUGGCUAGACUGCC, with 0.02.
Next, GUCAGAGCGCAAGACAGCGGGGCAAAGUGGUUGUGGCUAUACUGCC: 0.03; GUCAGAGCUCAACACAGCGAUGCGAAGUGGCUGUGGCUAGAUUGCC: 0.03; GUCAGAGCCCAACACAGCGUGGCAAAGUGGCUGUUUCUAGACUGCC: 0.02.
Take GUCAGAGCUCAACACAGCGUGGCAAAGUGGCUGCGGCUAGAUUGCC: the self-cleavage came out at 0.04.
Next, GUCAGAGCGCAACACAGCGUGGCAAAGUGGCUGUUGCUAGACUGCA: 0.01; GUCAGAGCUCAACACAGCGUGGCAAAGAGGCUGCGGAUAGACUGCC: 0.02; GUCAGAGCCCAACACAGCGUGGCAAAGUGGCUGUGGCUAGACUUCC: 0.
Take GUCAGAGCUCAACACAGCGUGGCAAAGUGGCGGUGGCUAGACGGUC: the self-cleavage amounted to 0.01.
Then GUCAGAGCUCAACACAGCGGGGCAAAAUGGCUGUGGCUGGACUGCC, with 0; and GUCAGAGCUCAACACAGCGGCGCAAAGUGGCUGUGGCUAGACUGCC, with 0.07; and GUCAGAGCUCAACACAGCGCGGCAAAGUGGCGGUGGCUAGCUUGCC, with 0.08.
Then GUCAGAGCUCAACACAGCGAGGAAAAGUGGCUGUUGCUACACUGCC, with 0.03.
GUCAGAGCCCAACAAAGGGUGGCAAAGUGCCUGUGGAUAGACUGCC: the self-cleavage stood at 0.
GUCAGAGCGCAACACAUGGUGGCAAAGUGGCUGUGGCUUGACUGCC: the self-cleavage is 0.1.
Take GUCAGAGCUCAACACAGCGGGGCAAAGUGUCUGUUGCUAGACUGCC: the self-cleavage was 0.03.
As to GUCAGAGCGCAACACAGCGUGGCAAAGUGGCUGUGACUAUACUGCC, the self-cleavage worked out at 0.05.
With GUCAGAGCGCACCACAGCUUGUCAAAGUGGCUGUGGCUAGACUGCC, the self-cleavage was determined as 0.01.
Then GUCAGAGCUCAACACAGCGUGGCAAAGUGGCUGGUGCUAGACUGAC, with 0.03.
For GUCAGAGCGCAACACAGCGUGGCAAAGUUGCUGUGGCUAGACUGCC, the self-cleavage turned out to be 0.04.
Next, GUCAGAGCUCAACACAGCGGGGAAAAGUGGCUGUGGCUAGACUGCU: 0.03; GUCAGAGCCCAACACACCGUGGCAAAUUGGCUGUGGCUAGACUGCC: 0.
GUCAGAGCCCAACACAUCGUGGCAAAGUGGCUGUUGCUAGACUGCC: the self-cleavage was 0.07.
As for GUCAGAGCUCAACACAGCGUGGCAAAGUGGCAGUGGCUAGAGUCCC, the self-cleavage was determined as 0.01.
As to GUCAGAGCACAACACAGCGUGGCAAAGUGGCUGUGGCUAGACUGCA, the self-cleavage was determined as 0.12.
For GUCAGAGCCCAACACCGCGUGGCAAAGUGGAUGUGGCUACACUGCC, the self-cleavage is 0.01.
Consider GUCAGAGCGCAACAAAGCAUGGCAAAGUGGCUGUGGCUAGACUGCC, for which the self-cleavage was found to be 0.02.
Next, GUCAGAGCUCAACACAGCGUGGCAAAGCUGCUGUGGCUAGACUGCC: 0.09.
Then GUCAGAGCUCAACACAGCGUGGCAAAGCGGCUGUGCCUAGACUGCC, with 0.05; and GUCAGAGCACAACACAGCGUGACAAAGUGGCUGUGACUAGACUACC, with 0.04.
